The values that follow come from PMC5700166.

The entries are a selection whose mix differs from that of the whole data set. The list includes weakly bound sequences.

The assay addresses T1, GST-Ap-NF-kB RHD (UniProt A0A913YAJ5).
T1 sequence: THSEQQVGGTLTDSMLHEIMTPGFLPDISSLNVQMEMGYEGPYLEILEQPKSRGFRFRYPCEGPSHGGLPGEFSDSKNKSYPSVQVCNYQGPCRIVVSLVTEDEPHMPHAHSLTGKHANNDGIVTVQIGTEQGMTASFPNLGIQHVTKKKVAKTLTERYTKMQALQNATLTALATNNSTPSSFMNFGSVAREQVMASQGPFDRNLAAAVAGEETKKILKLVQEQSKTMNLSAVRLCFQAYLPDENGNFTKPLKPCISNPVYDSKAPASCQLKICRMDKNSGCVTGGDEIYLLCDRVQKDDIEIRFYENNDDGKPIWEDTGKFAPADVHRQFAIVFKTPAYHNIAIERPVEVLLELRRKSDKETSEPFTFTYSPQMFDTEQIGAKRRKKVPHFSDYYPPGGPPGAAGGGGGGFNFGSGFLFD
The assay can be described thus: protein-binding microarray (PBM). To be noted: PBM: ~300 nM protein, 6 mM HEPES pH 7.8, 80 mM KCl, 0.5 mM EDTA, 0.5 mM EGTA, 6% glycerol, 35 ng/ul poly-dIdC, 1% milk, 1 h, room temperature; Ap Aiptasia and Nv Nematostella (sea anemones) / Co Capsaspora / Aq Amphimedon (sponge) / Dm Drosophila / Hu human; RHD is the Rel homology domain; high values mean tight binding; most listed sequences are background and not binding sites; double strand, one strand shown.
Consider “CCGATTAACATCAGGAAATTCACTGATGTTAATCGGGTCTTGATTCGCTTGACGCTGCTG”, for which the binding signal is -0.25 z-score.

“CCGATTAACATCAACACCGGCTTTGATGTTAATCGGGTCTTGATTCGCTTGACGCTGCTG” yielded a binding signal of 0.277 z-score.

On to “CCGATTAACATCAGGGAGATACCTGATGTTAATCGGGTCTTGATTCGCTTGACGCTGCTG”, for which the binding signal stood at 4 z-score.

In the case of “CCGATTAACATCATGATATCCGGTGATGTTAATCGGGTCTTGATTCGCTTGACGCTGCTG”, the binding signal turned out to be 0.262 z-score.

“CCGATTAACATCATTTCTTACGGTGATGTTAATCGGGTCTTGATTCGCTTGACGCTGCTG” showed a binding signal of 0.205 z-score.

“CCGATTAACATCACGTTCTTTCCTGATGTTAATCGGGTCTTGATTCGCTTGACGCTGCTG” showed a binding signal of 0.0952 z-score.

In turn, “CCGATTAACATCACCGCAGCATGTGATGTTAATCGGGTCTTGATTCGCTTGACGCTGCTG” returned a binding signal of 0.261 z-score.

For “CCGATTAACATCAAGGATATTCCTGATGTTAATCGGGTCTTGATTCGCTTGACGCTGCTG”, the binding signal was -0.714 z-score.

Sequence “CCGATTAACATCAGAAAGTTTCCTGATGTTAATCGGGTCTTGATTCGCTTGACGCTGCTG” yielded a binding signal of -0.162 z-score.

For the sequence “CCGATTAACATCAAAAATTCCATTGATGTTAATCGGGTCTTGATTCGCTTGACGCTGCTG”, the binding signal is -0.572 z-score.

“CCGATTAACATCAACAACGGTTCTGATGTTAATCGGGTCTTGATTCGCTTGACGCTGCTG” gave a binding signal of -0.508 z-score.

Take “CCGATTAACATCACGAAAATTCCTGATGTTAATCGGGTCTTGATTCGCTTGACGCTGCTG”: the binding signal came to 0.0904 z-score.

“CCGATTAACATCACGTACTTTCCTGATGTTAATCGGGTCTTGATTCGCTTGACGCTGCTG” yielded a binding signal of 0.358 z-score.

Turning to “CCGATTAACATCAAAAAACCGTTTGATGTTAATCGGGTCTTGATTCGCTTGACGCTGCTG”, the binding signal is -0.264 z-score.

On to “CCGATTAACATCAGTGAATTCCATGATGTTAATCGGGTCTTGATTCGCTTGACGCTGCTG”, for which the binding signal is -0.23 z-score.

Take “CCGATTAACATCATCCCTCTGAATGATGTTAATCGGGTCTTGATTCGCTTGACGCTGCTG”: the binding signal came out at 0.834 z-score.

In turn, “CCGATTAACATCAATAAATGTACTGATGTTAATCGGGTCTTGATTCGCTTGACGCTGCTG” came in with a binding signal of -0.504 z-score.

“CCGATTAACATCAGGAGAGTCCATGATGTTAATCGGGTCTTGATTCGCTTGACGCTGCTG” returned a binding signal of -0.228 z-score.

As for “CCGATTAACATCATGGTGCTTAATGATGTTAATCGGGTCTTGATTCGCTTGACGCTGCTG”, the binding signal was -0.221 z-score.

Regarding “CCGATTAACATCAAATATTTTCCTGATGTTAATCGGGTCTTGATTCGCTTGACGCTGCTG”, the binding signal came to 0.00302 z-score.

Consider “CCGATTAACATCAGGAAAATCACTGATGTTAATCGGGTCTTGATTCGCTTGACGCTGCTG”, for which the binding signal is -0.257 z-score.

“CCGATTAACATCAAAAAATTTCCTGATGTTAATCGGGTCTTGATTCGCTTGACGCTGCTG” returned a binding signal of 0.184 z-score.

On to “CCGATTAACATCAGGGACTGCCCTGATGTTAATCGGGTCTTGATTCGCTTGACGCTGCTG”, for which the binding signal is 4.31 z-score.

Sequence “CCGATTAACATCACTGAACGCGTTGATGTTAATCGGGTCTTGATTCGCTTGACGCTGCTG” yielded a binding signal of -0.496 z-score.

In turn, “CCGATTAACATCATGTTTAGTTTTGATGTTAATCGGGTCTTGATTCGCTTGACGCTGCTG” registered a binding signal of -0.115 z-score.

As to “CCGATTAACATCACGGAAAATACTGATGTTAATCGGGTCTTGATTCGCTTGACGCTGCTG”, the binding signal was determined as 0.0745 z-score.

“CCGATTAACATCACAGAAAATCCTGATGTTAATCGGGTCTTGATTCGCTTGACGCTGCTG” came in with a binding signal of 0.187 z-score.

In turn, “CCGATTAACATCAGGAATTGCCATGATGTTAATCGGGTCTTGATTCGCTTGACGCTGCTG” showed a binding signal of -0.112 z-score.

As for “CCGATTAACATCAGGAAAAATCATGATGTTAATCGGGTCTTGATTCGCTTGACGCTGCTG”, the binding signal is -0.468 z-score.

Take “CCGATTAACATCATTACAGGCCGTGATGTTAATCGGGTCTTGATTCGCTTGACGCTGCTG”: the binding signal is 0.274 z-score.

Regarding “CCGATTAACATCAGCTGTTAGCCTGATGTTAATCGGGTCTTGATTCGCTTGACGCTGCTG”, the binding signal is -0.196 z-score.

The sequence “CCGATTAACATCAGAGTAATTCCTGATGTTAATCGGGTCTTGATTCGCTTGACGCTGCTG” had a binding signal of -0.0018 z-score.

Take “CCGATTAACATCAATAGCTAGTATGATGTTAATCGGGTCTTGATTCGCTTGACGCTGCTG”: the binding signal was -0.716 z-score.

Take “CCGATTAACATCAAAAACTACCCTGATGTTAATCGGGTCTTGATTCGCTTGACGCTGCTG”: the binding signal was 4.12 z-score.

Consider “CCGATTAACATCAAAGGATTTCCTGATGTTAATCGGGTCTTGATTCGCTTGACGCTGCTG”, for which the binding signal was -0.269 z-score.

With “CCGATTAACATCAAGTACAACGGTGATGTTAATCGGGTCTTGATTCGCTTGACGCTGCTG”, the binding signal was -0.0766 z-score.

In turn, “CCGATTAACATCAAGAATTCCCCTGATGTTAATCGGGTCTTGATTCGCTTGACGCTGCTG” had a binding signal of 9.76 z-score.

“CCGATTAACATCACAAATTTTCCTGATGTTAATCGGGTCTTGATTCGCTTGACGCTGCTG” came in with a binding signal of -0.106 z-score.

Take “CCGATTAACATCAGGGAACTCCCTGATGTTAATCGGGTCTTGATTCGCTTGACGCTGCTG”: the binding signal was determined as 8.33 z-score.

In turn, “CCGATTAACATCAGGGACGTCCCTGATGTTAATCGGGTCTTGATTCGCTTGACGCTGCTG” came in with a binding signal of 7.37 z-score.
